# From PubChem BioAssay (Tox21)
# This list was built around the results that the source calls inconclusive (neither active nor inactive); the mix of calls is not that of the screen. For some assays here: Potencies beside an inconclusive call are fits to weak or partial responses and may not hold up. Activity calls are given as the source filed them. Unless noted, calls come from the whole dose curve; as a rule, active = well fitted curve in the direction sought with a large enough effect in the repeat runs; inconclusive = weak or mixed curves; inactive = no such curve, though single readings can be large; an effect the other way counts as inactive or inconclusive.
# How the values were obtained:
# [1] = qHTS assay to identify small molecule antagonists of the estrogen related receptor (ERR) signaling pathway (AID 1224819; note: nearly all actives have a fitted effect of over 50% in size; note: potency is the fitted concentration of half-maximal effect;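 for activity change, negative = inhibition: luminescence from an ERR-driven luciferase reporter measured with One-Glo reagent; % is set by controls: 0 for no effect and ±100 for the full control effect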)
# Procedure, shortened: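 Luminescence readout (One-Glo, 30 min, RT) of ERR cell line after 18 h compound exposure at 37 C; cells seeded 2,000/well, pre-incubated 6 h, compounds pinned from DMSO stocks.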
# [2] = test system: estrogen-related receptor alpha (ERRalpha) with PGC-1alpha coactivator, human; test: qHTS assay to identify small molecule antagonists of the estrogen related receptor signaling pathway with the pleiotropic PPARgamma coactivator (PGC) (AID 1224821; calls by dose curve; note: nearly all actives have a fitted effect of over 50% in size; note: potency is the fitted concentration of half-maximal effect;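 for activity change, negative = inhibition: % is set by controls: 0 for no effect and ±100 for the full control effect; lower luminescence signal means antagonism of PGC/ERR signalling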)
# Procedure, shortened: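 PGC/ERR reporter cells; 6 h pre-incubation 37 C/5% CO2; pin-tool compound in DMSO, 18 h 37 C; One-Glo added, 30 min RT; luminescence read. qHTS antagonist mode.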
# [3] = qHTS assay to identify small molecule antagonists of the estrogen related receptor signaling pathway with the pleiotropic PPARgamma coactivator (PGC) cell viability counter screen (AID 1224822; note: potency is the fitted concentration of half-maximal effect;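 note: viability read after 17.5 h compound exposure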; for viability change, negative = cytotoxic: % is set by controls: 0 for no effect and ±100 for the full control effect)
# Procedure, shortened: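 Fluorescence read-out of CellTiter-Fluor after 30 min at 37 C; PGC/ERR cells, 2,000 per well, had been exposed to DMSO-dissolved compounds for 17.5 h following a 6 h pre-incubation.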
# [4] = qHTS assay for small molecule agonists of the p53 signaling pathway (AID 651631; calls by dose curve; note: potency is the fitted concentration of half-maximal effect; nearly all actives have a fitted effect of over 15% in size); settings: HCT-116 p53RE-bla reporter, beta-lactamase FRET ratio, 16 h; activation: at 73.3 µM (top of the series) unless noted
# Procedure, shortened: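 Testing took place in human colorectal HCT-116 cells with stable p53RE-driven beta-lactamase. After 16 h of compound exposure at 37 °C, a FRET substrate was added and fluorescence recorded 2 h later.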
# [5] = qHTS assay for small molecule disruptors of the mitochondrial membrane potential (AID 720635); settings: HepG2 mitochondrial membrane potential, Mito-MPS dye ratio; ratio activity, negative = MMP loss: at 83.2 µM (top of the series) unless noted; note: % is set by controls: 0 for no effect and ±100 for the full control effect
# Procedure, shortened: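 HepG2 cells exposed to compound 1 hr at 37C, then Mito-MPS dye 30 min. Ratio read of aggregate (540/590 nm) versus monomer (490/535 nm) fluorescence.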
# [6] = molecular target: Glucocorticoid receptor (Homo sapiens) (UniProt P04150); test: qHTS assay to identify small molecule agonists of the glucocorticoid receptor (GR) signaling pathway (AID 720691; active = well fitted activation curve with a large enough effect in the signal ratio in the repeat runs, not every such curve was filed as active; inconclusive = weak or mixed curves, or effect the other way; inactive = no such curve, though single readings can be large or run the other way; the % refers to the signal ratio; note: % is set by controls: 0 for no effect and ±100 for the full control effect); settings: GR-bla HeLa, beta-lactamase reporter ratio, 18 h; activation: at 62.4 µM (top of the series) unless noted
# Procedure, shortened: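 HeLa GR-bla reporter line; cells pre-incubated 4 h, compound in DMSO 18 h at 37 C; LiveBLAzer B/G FRET substrate 2 h RT; fluorescence intensity read-out.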
# [7] = molecular target: Glucocorticoid receptor (Homo sapiens) (UniProt P04150); test: qHTS assay to identify small molecule antagonists of the glucocorticoid receptor (GR) signaling pathway (AID 720692; active = well fitted inhibition curve with a large enough effect in the signal ratio in the repeat runs, not every such curve was filed as active; inconclusive = weak or mixed curves, or effect the other way; inactive = no such curve, though single readings can be large or run the other way; the % refers to the signal ratio; note: potency is the fitted concentration of half-maximal effect); settings: GR-bla HeLa, beta-lactamase FRET ratio, dexamethasone-stimulated, 18 h; activity change, negative = inhibition: at 58.5 µM (top of the series) unless noted
# Procedure, shortened: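 Read-out: beta-lactamase FRET substrate fluorescence, 2 h at room temperature, in HeLa cells stably carrying a GRE-driven bla reporter. Compounds were co-incubated with 5 nM dexamethasone agonist (final) for 18 h at 37 C.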
# [8] = qHTS assay to identify small molecule antagonists of the androgen receptor (AR) signaling pathway - cell viability counter screen (AID 743033; note: potency is the fitted concentration of half-maximal effect; nearly all actives have a fitted effect of over 45% in size); settings: AR-bla HEK293 viability, CellTiter-Glo luminescence, 16 h; activity change, negative = cytotoxicity: at 58.5 µM (top of the series) unless noted
# [9] = qHTS assay to identify small molecule antagonists of the androgen receptor (AR) signaling pathway using the MDA cell line - cell viability counter screen (AID 743041; note: potency is the fitted concentration of half-maximal effect; nearly all actives have a fitted effect of over 45% in size); settings: MDA-kb2 viability, CellTiter-Fluor, 16 h, cells co-treated with R1881 androgen agonist; viability change, negative = cytotoxic: at 70.3 µM (top of the series)
# Procedure, shortened: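 Cytotoxicity counter screen: MDA-kb2 AR-luc cells, compound + R1881, 16 h, 37C, 0% CO2; CellTiter-Fluor added at 15.5 h, fluorescence read after 30 min.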
# [10] = qHTS assay to identify small molecule antagonists of the thyroid receptor (TR) signaling pathway - cell viability counter screen (AID 743064); settings: GH3.TRE-Luc viability, CellTiter-Fluor, 24 h; activity change, negative = cytotoxic: at 70.3 µM (top of the series) unless noted; note: potency is the fitted concentration of half-maximal effect; nearly all actives have a fitted effect of over 50% in size
# Procedure, shortened: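 Viability of T3-stimulated (1 nM final) GH3.TRE-Luc cells is measured by CellTiter-Fluor fluorescence after 23.5 h compound exposure at 37 °C plus 30 min reagent incubation.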
# [11] = molecular target: Estrogen receptor (Homo sapiens) (UniProt P03372); test: qHTS assay to identify small molecule antagonists of the estrogen receptor alpha (ER-alpha) signaling pathway (AID 743069; active = well fitted curve in the direction sought with a large enough effect in the signal ratio in the repeat runs, not every such curve was filed as active; inconclusive = weak or mixed curves, or effect the other way; inactive = no such curve, though single readings can be large or run the other way; the % refers to the signal ratio; note: potency is the fitted concentration of half-maximal effect); settings: HEK293 ER-alpha-UAS-bla, beta-lactamase ratio, antagonist mode; activity, negative = inhibition: at 69.4 µM (top of the series) unless noted
# Procedure, shortened: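 Beta-lactamase FRET fluorescence is read after 2 hr at room temperature with LiveBLAzer B/G substrate. Before that, ER-alpha-bla HEK293 cells sit 4 hr after plating, then receive compound plus 17beta-estradiol and incubate 18 hr at 37C.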
# [12] = qHTS assay to identify small molecule antagonists of the estrogen receptor alpha (ER-alpha) signaling pathway - cell viability counter screen (AID 743074; calls by dose curve;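 note: HEK293 cells carrying ER-alpha-UAS-bla reporter stimulated with 17beta-estradiol; potency is the fitted concentration of half-maximal effect; nearly all actives have a fitted effect of over 45% in size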)
# [13] = molecular target: Estrogen receptor (Homo sapiens) (UniProt P03372); test: qHTS assay to identify small molecule agonists of the estrogen receptor alpha (ER-alpha) signaling pathway using the BG1 cell line (AID 743079); settings: BG1Luc4E2 cells, ERE-luciferase agonist, 22 h; activation: at 70.3 µM (top of the series) unless noted; note: potency is the fitted concentration of half-maximal effect; nearly all actives have a fitted effect of over 20% in size
# [14] = qHTS assay to identify small molecule antagonists of the estrogen receptor alpha (ER-alpha) signaling pathway using the BG1 cell line (AID 743080; calls by dose curve;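 note: BG1 cells stimulated with 17beta-estradiol alongside compound; potency is the fitted concentration of half-maximal effect; nearly all actives have a fitted effect of over 25% in size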); settings: BG1Luc4E2 ERE-luciferase antagonist mode, luminescence; activity change, negative = inhibition: at 70.3 µM (top of the series) unless noted
# Procedure, shortened: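 Seeding, 24 h rest, compound transfer from DMSO, 17beta-estradiol addition, 21.5 h incubation, CellTiter-Fluor (30 min, 37 C), then ONE-Glo (30 min, room temperature): this sequence was run on BG1-Luc-4E2 reporter cells.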
# [15] = qHTS assay to identify small molecule antagonists of the estrogen receptor alpha (ER-alpha) signaling pathway using the BG1 cell line - cell viability counter screen (AID 743081); settings: BG1Luc4E2 viability, CellTiter-Fluor, 22 h; activity change, negative = cytotoxicity: at 70.3 µM (top of the series) unless noted;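 note: compound given together with 17beta-estradiol as the ER stimulus; potency is the fitted concentration of half-maximal effect; nearly all actives have a fitted effect of over 45% in size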
# [16] = molecular target: Aromatase (Homo sapiens) (UniProt P11511); test: qHTS assay to identify aromatase inhibitors (AID 743083); note: potency is the fitted concentration of half-maximal effect; nearly all actives have a fitted effect of over 55% in size
# [17] = qHTS assay to identify aromatase inhibitors - cell viability counter screen (AID 743084); settings: MCF-7 aro ERE viability, CellTiter-Fluor, 24 h; activity change, negative = cytotoxicity: at 70.3 µM (top of the series) unless noted;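 note: cells stimulated with testosterone during compound exposure; % is set by controls: 0 for no effect and ±100 for the full control effect; nearly all actives have a fitted effect of over 55% in size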
# [18] = qHTS assay to identify small molecule phospholipidosis (PLD) inducers (AID 1259344; active = well fitted curve in the direction sought with a large enough effect; inconclusive = small, poorly fitted or top-dose-only effect, or another doubt; inactive = no such curve, though single readings can be large; an effect the other way counts as inactive or inconclusive; note: potency is the fitted concentration of half-maximal effect); settings: HepG2 phospholipidosis, LipidTOX Red imaging, 24 h; PLD induction: at 38.3 µM (top of the series) unless noted
# Procedure, shortened: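 Read-out is LipidTOX Red fluorescence (ex 595/em 615) imaged in HepG2 cells after 24 h compound exposure at 37 C, with Hoechst nuclear counterstain (ex 352/em 461) allowing per-cell normalisation.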
# Tags give direction and shape of the fitted curve or compound fluorescence and quenching.
# Sequence of UniProt P03372 (P03372 whole entry, looked up): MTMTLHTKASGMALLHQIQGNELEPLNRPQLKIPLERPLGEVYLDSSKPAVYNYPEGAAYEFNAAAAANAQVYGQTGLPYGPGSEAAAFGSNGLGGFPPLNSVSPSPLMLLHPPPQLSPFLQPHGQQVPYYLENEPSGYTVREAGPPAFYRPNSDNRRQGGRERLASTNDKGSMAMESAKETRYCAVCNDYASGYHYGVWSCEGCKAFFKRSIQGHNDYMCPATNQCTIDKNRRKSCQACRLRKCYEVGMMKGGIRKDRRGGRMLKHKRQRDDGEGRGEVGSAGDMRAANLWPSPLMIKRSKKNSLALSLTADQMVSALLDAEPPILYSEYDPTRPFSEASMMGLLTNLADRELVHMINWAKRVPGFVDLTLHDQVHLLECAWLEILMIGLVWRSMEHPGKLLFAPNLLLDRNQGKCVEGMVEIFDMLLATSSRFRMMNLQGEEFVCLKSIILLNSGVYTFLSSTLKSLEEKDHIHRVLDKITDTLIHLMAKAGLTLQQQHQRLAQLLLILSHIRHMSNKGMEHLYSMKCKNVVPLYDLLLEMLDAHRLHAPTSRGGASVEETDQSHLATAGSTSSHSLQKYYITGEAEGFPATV
# Sequence of UniProt P04150 (P04150 whole entry, looked up): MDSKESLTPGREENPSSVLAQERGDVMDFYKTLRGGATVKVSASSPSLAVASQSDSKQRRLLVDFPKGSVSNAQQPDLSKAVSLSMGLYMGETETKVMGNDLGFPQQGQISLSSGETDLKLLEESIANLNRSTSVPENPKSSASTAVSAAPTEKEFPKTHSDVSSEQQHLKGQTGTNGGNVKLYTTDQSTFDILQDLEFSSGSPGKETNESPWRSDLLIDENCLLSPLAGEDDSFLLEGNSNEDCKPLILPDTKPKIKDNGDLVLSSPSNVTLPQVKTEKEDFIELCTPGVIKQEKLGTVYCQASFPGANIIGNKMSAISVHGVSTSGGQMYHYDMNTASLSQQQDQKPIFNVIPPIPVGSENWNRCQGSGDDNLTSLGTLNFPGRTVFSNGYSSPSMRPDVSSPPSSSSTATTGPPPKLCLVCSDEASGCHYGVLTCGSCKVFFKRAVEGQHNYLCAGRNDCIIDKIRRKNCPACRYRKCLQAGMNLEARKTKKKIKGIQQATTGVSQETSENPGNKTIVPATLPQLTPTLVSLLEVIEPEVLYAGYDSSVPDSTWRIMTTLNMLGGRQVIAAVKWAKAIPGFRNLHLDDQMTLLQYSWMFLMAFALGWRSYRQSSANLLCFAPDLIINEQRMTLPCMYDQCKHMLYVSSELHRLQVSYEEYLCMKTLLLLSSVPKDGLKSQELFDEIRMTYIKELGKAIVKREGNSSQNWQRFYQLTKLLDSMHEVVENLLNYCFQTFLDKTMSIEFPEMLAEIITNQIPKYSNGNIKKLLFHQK
# Sequence of UniProt P11511 (P11511 whole entry, looked up): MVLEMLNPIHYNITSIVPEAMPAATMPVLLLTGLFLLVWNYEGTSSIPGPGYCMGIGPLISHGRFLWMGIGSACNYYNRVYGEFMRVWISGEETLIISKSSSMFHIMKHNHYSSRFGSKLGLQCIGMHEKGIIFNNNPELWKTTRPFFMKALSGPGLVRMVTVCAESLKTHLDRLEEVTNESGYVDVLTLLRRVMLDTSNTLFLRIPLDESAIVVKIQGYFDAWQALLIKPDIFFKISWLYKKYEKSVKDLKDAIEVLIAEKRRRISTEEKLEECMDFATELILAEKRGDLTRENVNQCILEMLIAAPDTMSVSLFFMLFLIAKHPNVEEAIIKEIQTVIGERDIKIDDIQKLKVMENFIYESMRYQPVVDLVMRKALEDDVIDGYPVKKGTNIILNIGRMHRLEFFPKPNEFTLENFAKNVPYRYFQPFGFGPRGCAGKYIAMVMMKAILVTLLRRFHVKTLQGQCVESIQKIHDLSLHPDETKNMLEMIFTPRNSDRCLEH
smiles,measurement,setting,value
CCCc1c(-c2ccc(O)cc2)nn(-c2ccc(O)cc2)c1-c1ccc(O)cc1,Potency,[1],"inconclusive: 26.6 µM [inhibitor, single point]"
same,Potency,[2],inconclusive: 11 µM [inhibitor]
same,Potency,[3],inactive
Nc1nc(Cl)nc2c1ncn2[C@@H]1O[C@H](COP(=O)(O)OP(=O)(O)OP(=O)(O)O)C(O)[C@H]1O (stereo partly specified),Potency,[1],inconclusive: 31.6 µM [inhibitor]
same,Potency,[2],inactive
CN1CCc2cccc3c2C1Cc1ccc(O)c(O)c1-3 (stereo unspecified),Potency,[1],inconclusive: 26.6 µM [inhibitor]
same,Potency,[2],active: 26.6 µM
same,Potency,[3],inconclusive: 20.3 µM [cytotoxic]
O=C1NC(=O)/C(=C/c2ccc3nccnc3c2)S1,Potency,[1],inactive
same,Potency,[2],"inconclusive: 26.6 µM [inhibitor, single point]"
OC[C@H]1O[C@@H](n2cnc3cncnc32)[C@H](O)[C@@H]1O,Potency,[1],inconclusive: 31 µM [inhibitor]
same,Potency,[2],active: 15 µM
CC[C@H](NC(=O)c1c(C)c(-c2ccccc2)nc2ccccc12)c1ccccc1,Potency,[1],active: 22 µM
same,Potency,[2],inconclusive: 21.1 µM [inhibitor]
c1ccc(C(NCc2cccnc2)(c2ccccc2)c2ccccc2)cc1,Potency,[1],inconclusive: 25.6 µM [inhibitor]
same,Potency,[2],active: 24.6 µM
same,Potency,[3],inconclusive: 27.6 µM [cytotoxic]
CCCCCCN(CCCCCC)C(=O)Cc1c(-c2ccc(F)cc2)[nH]c2ccccc12,Potency,[1],inconclusive: 25.6 µM [inhibitor]
same,Potency,[2],inconclusive: 27.6 µM [inhibitor]
same,Potency,[3],"inconclusive: 33.5 µM [cytotoxic, partial curve, poor fit]"
COc1ccc(-c2cc(=O)c3c(O)c(OC)c(OC)cc3o2)cc1O,Potency,[1],inconclusive: 29.8 µM [inhibitor]
same,Potency,[2],inactive
Nc1nc2ccc(Cl)cc2c2nc(-c3ccco3)nn12,Potency,[1],inconclusive: 5.52 µM [inhibitor]
same,Potency,[2],inactive
same,Potency,[3],inactive
O=C1C(SCCO)=C(SCCO)C(=O)c2ccccc21,Potency,[1],active: 9.08 µM
same,Potency,[2],active: 18.8 µM
same,Potency,[3],inconclusive: 9.81 µM [cytotoxic]
O=c1cc(N2CCOCC2)oc2c(-c3ccccc3)cccc12,Potency,[1],"inconclusive: 26.6 µM [inhibitor, single point]"
same,Potency,[2],inconclusive: 22 µM [inhibitor]
same,Potency,[3],inactive
Cn1c(=O)c2[nH]c(C3CCCC3)nc2n(C)c1=O,Potency,[1],"inconclusive: 0.0211 µM [inhibitor, full curve, poor fit]"
same,Potency,[2],inactive
Cc1cc(N)c2ccccc2[n+]1CCCCCCCCCC[n+]1c(C)cc(N)c2ccccc21,Potency,[4],"inconclusive: 16 µM [falling, single point]"
same,Potency,[5],inactive
same,Potency,[6],inactive
same,Potency,[7],"inconclusive: 11.5 µM [falling, partial curve, poor fit]"
same,Potency,[8],inconclusive: 2.04 µM [cytotoxic]
same,Potency,[9],active: 7.49 µM
same,Potency,[10],"inconclusive: 14.3 µM [cytotoxic, single point]"
same,Potency,[11],"inconclusive: 7.23 µM [rising, partial curve]"
same,Potency,[12],active: 8.11 µM
same,Potency,[13],"inconclusive: 4.52 µM [inhibitor, partial curve]"
same,Potency,[14],"inconclusive: 6.39 µM [falling, partial curve]"
same,Potency,[15],"inconclusive: 5.69 µM [cytotoxic, partial curve, poor fit]"
same,Potency,[16],"inconclusive: 11.4 µM [inhibitor, partial curve]"
same,"activity change, negative = cytotoxicity",[17],inconclusive: -30.1% [cytotoxic] [at 32.5 µM]
same,Potency,[1],active: 0.722 µM
same,Potency,[2],"inconclusive: 5.31 µM [inhibitor, partial curve]"
same,Potency,[3],inactive
same,Potency,[18],"inconclusive: 1.41 µM [activator, full curve, poor fit]"
N=C(N)c1ccc(OCCCCCOc2ccc(C(=N)N)cc2)cc1 (tested in a mixture with another compound),Potency,[1],inconclusive: 2.87 µM [inhibitor]
same,Potency,[2],inconclusive: 12.6 µM [inhibitor]
C=C1C[C@@]23CC[C@H]4[C@@](C)(CCC[C@@]4(C)C(=O)OC4OC(CO)C(O)C(O)C4O)[C@@H]2CC[C@]1(OC1OC(CO)C(O)C(O)C1OC1OC(CO)C(O)C(O)C1O)C3 (stereo partly specified),Potency,[1],inactive
same,Potency,[2],inactive
same,Potency,[3],inconclusive: 28.2 µM [cytotoxic]
